# “And” between values parts separate entries of the source, which are not always exact repeats. Equal values may be shown once. Where a name gives a salt, the structure may show the parent alone. About 620 (11%) of roughly 5,800 compounds showed activity.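 Rule for the calls: active = score above a cut-off or among the top three wells of a plate; in these data no inactive exceeds 0.85.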 The list shows a part of the results, in another mix than the full data.
# Test system: primary human hepatic stellate cells (donor 1)
# Assay: scaled lipid accumulation score (0 = DMSO-like, 1 = nortriptyline-like); higher = stronger HSC inactivation (lipid re-accumulation), active = hit call of the paper
# Conditions: 48 h
# Description: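 Primary lipid accumulation screen in primary human hepatic stellate cell myofibroblasts (donor 1, passage 8) in 384-well plates. 100 nL of library compound was pin-transferred into 30 µL medium in duplicate, and cells were treated for 48 h. The 'Scaled' score combines distance from plate baseline, toxicity and reproducibility penalties, and is normalised to nortriptyline (positive) and DMSO (negative) controls on each plate. A hit is defined as scaled >0.85 or among the top 3 wells per plate.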
# [1] = library stock concentration: 80 uM
# [2] = library stock concentration: 400 uM
# [3] = library stock concentration: 2 mM
# [4] = library stock concentration: 3.33 mM
# [5] = library stock concentration: 10 mM
# [6] = library stock concentration: 1 mM
structure (smiles),measurement,setting,value
CN(C)CC[C@H](CSc1ccccc1)Nc1ccc(S(=O)(=O)NC(=O)c2ccc(N3CCN(Cc4ccccc4-c4ccc(Cl)cc4)CC3)cc2)cc1[N+](=O)[O-],scaled lipid accumulation score,[1],inactive: ≤ -0.009
same,scaled lipid accumulation score,[2],inactive: ≤ -0.009 and inactive: ≤ -0.005
same,scaled lipid accumulation score,[3],inactive: 0.097 and inactive: 0.066
same,scaled lipid accumulation score,[4],inactive: ≤ 0
same,scaled lipid accumulation score,[5],inactive: ≤ 0 and inactive: 0.132 and inactive: 0.039
C[C@H]1COC2=C1C(=O)C(=O)c1c2ccc2c1CCCC2(C)C [Cryptotanshinone],scaled lipid accumulation score,[4],inactive: ≤ 0
same,scaled lipid accumulation score,[5],inactive: 0.306
NC(=O)Cc1cccc(C(=O)c2ccccc2)c1N [Nepafenac],scaled lipid accumulation score,[4],inactive: ≤ 0
same,scaled lipid accumulation score,[5],inactive: 0.098
CC(=O)SCC[N+](C)(C)C [Acetylthiocholine chloride],scaled lipid accumulation score,[5],inactive: ≤ 0
CCCCC1=NC2(CCCC2)C(=O)N1Cc1ccc(-c2ccccc2-c2nnn[nH]2)cc1 [Irbesartan],scaled lipid accumulation score,library stock concentration: 4.7 mM,inactive: ≤ 0
same,scaled lipid accumulation score,[5],inactive: ≤ -0.027
CC(C)COC(=O)OCN1C(=O)CN(CCN2CC(=O)N(COC(=O)OCC(C)C)C(=O)C2)CC1=O [Sobuzoxane],scaled lipid accumulation score,[5],inactive: ≤ 0
Nc1ccccc1NC(=O)c1ccc(CNC(=O)OCc2cccnc2)cc1,scaled lipid accumulation score,[1],inactive: ≤ 0
same,scaled lipid accumulation score,[2],inactive: ≤ 0
same,scaled lipid accumulation score,[6],inactive: 0.014
same,scaled lipid accumulation score,[3],inactive: ≤ 0
same,scaled lipid accumulation score,[5],inactive: 0.628
Nc1ccccc1NC(=O)c1ccc(CNC(=O)OCc2cccnc2)cc1 [Entinostat (MS-275)],scaled lipid accumulation score,[4],inactive: 0.152
same,scaled lipid accumulation score,[5],inactive: 0.418
O=C1NCN(c2ccccc2)C12CCN(CCCC(c1ccc(F)cc1)c1ccc(F)cc1)CC2 [Fluspirilen],scaled lipid accumulation score,,inactive: ≤ 0
CC(C)(C)C(=O)OCOC(=O)[C@@H]1N2C(=O)[C@@H](NC(=O)[C@H](N)c3ccccc3)[C@H]2SC1(C)C [Pivampicillin],scaled lipid accumulation score,,inactive: ≤ 0
CC1(C)Oc2ccc(C#N)cc2[C@H](N2CCCC2=O)[C@H]1O [Cromakalim],scaled lipid accumulation score,[5],inactive: 0.064
CCCCOc1c(C(=O)c2c(F)cc(C)cc2F)c[nH]c2nncc1-2,scaled lipid accumulation score,[4],inactive: 0.505
same,scaled lipid accumulation score,[5],inactive: 0.263
O=C(c1ccc(C=Cc2n[nH]c3ccccc23)cc1)N1CCNCC1,scaled lipid accumulation score,[5],active: 1.27
O=[N+]([O-])c1cccc2c(Br)[nH]nc12 [3-Bromo-7-nitroindazole],scaled lipid accumulation score,[5],inactive: 0.559 and inactive: 0.021
O=[N+]([O-])c1cccc2c(Br)[nH]nc12 [3-bromo-7-Nitroindazole],scaled lipid accumulation score,[6],inactive: ≤ 0
CN(C)C(=O)COC(=O)Cc1ccc(OC(=O)c2ccc(NC(=N)N)cc2)cc1 [Camostat Mesilate],scaled lipid accumulation score,[4],inactive: 0.052
same,scaled lipid accumulation score,[5],inactive: ≤ 0
COC(=O)[C@H]1[C@H]2C[C@@H]3c4[nH]c5cc(OC)ccc5c4CCN3C[C@H]2C[C@@H](OC(=O)c2cc(OC)c(OC)c(OC)c2)[C@@H]1OC [Reserpine],scaled lipid accumulation score,[5],active: 1.18
COc1ccc(Cc2cnc(N)nc2N)cc1OC,scaled lipid accumulation score,[5],inactive: ≤ 0
CC(Cc1ccccc1)(NC(=O)CN)c1ccccc1 (configuration not stated) [Remacemide hydrochloride],scaled lipid accumulation score,[5],inactive: 0.479
COc1cc(C)c(Sc2cnc(NC(=O)c3ccc(CNC(C)C(C)C)cc3)s2)cc1C(=O)N1CCN(C(C)=O)CC1 (configuration not stated),scaled lipid accumulation score,[1],inactive: 0.006
same,scaled lipid accumulation score,[2],inactive: ≤ 0
same,scaled lipid accumulation score,[3],inactive: 0.398
CC(C)[C@H](O)C(=O)O [(S)-(+)-2-hydroxy-3-Methylbutyric Acid],scaled lipid accumulation score,[6],inactive: ≤ 0
O=C(O)CCC(=O)N1CCC[C@H]1C(=O)O [N-Succinyl-L-proline],scaled lipid accumulation score,[5],inactive: ≤ 0
CNCC[C@H](Oc1cccc2ccccc12)c1cccs1,scaled lipid accumulation score,[5],active: 0.953
CCCCCCCCCCCCC/C=C/[C@@H](O)[C@H](CO)NC(=O)CCCCCCCCCCCCCCC [C16 Ceramide],scaled lipid accumulation score,[6],inactive: ≤ -0.021
C[C@@H](Oc1cc(-n2cnc3ccc(CN4CCN(C)CC4)cc32)sc1C(N)=O)c1ccccc1C(F)(F)F,scaled lipid accumulation score,[1],inactive: ≤ 0
same,scaled lipid accumulation score,[2],inactive: 0.039
same,scaled lipid accumulation score,[5],inactive: 0.788
CC1CCC(C(C)C)C(O)C1 (stereo not drawn) [Menthol(-)],scaled lipid accumulation score,[5],inactive: ≤ -0.027
Br.CN(C)CCCC1(c2ccc(F)cc2)OCc2cc(C#N)ccc21 (configuration not stated) [Citalopram hydrobromide],scaled lipid accumulation score,[5],active: 0.952
CO[C@@]1(NC(=O)Cc2cccs2)C(=O)N2C(C(=O)O)=C(COC(N)=O)CS[C@@H]21 [Cefoxitin sodium salt],scaled lipid accumulation score,,inactive: ≤ 0
CO[C@@]1(NC(=O)Cc2cccs2)C(=O)N2C(C(=O)O)=C(COC(N)=O)CS[C@@H]21 [Cefoxitin sodium],scaled lipid accumulation score,library stock concentration: 4.5 mM,inactive: ≤ 0
same,scaled lipid accumulation score,[5],inactive: ≤ 0
N#CC(=Cc1ccc(O)c(O)c1)C(=O)NCc1ccccc1 [AG-490 (Tyrphostin B42)],scaled lipid accumulation score,[4],inactive: ≤ 0
same,scaled lipid accumulation score,[5],inactive: ≤ 0
CCCCCCCCCCCCCCCC(=O)OCC [Palmitic Acid ethyl ester],scaled lipid accumulation score,[6],inactive: ≤ 0
Cc1cncc(CN2CCC(=C3c4ccc(Cl)cc4CCc4cccnc43)CC2)c1.O=C(O)C=CC(=O)O [Rupatadine Fumarate],scaled lipid accumulation score,[5],active: 0.862
CC1(COc2ccc3c(c2)ncn3-c2ccc3cccc(N4CCC(N)CC4)c3n2)COC1,scaled lipid accumulation score,[5],inactive: 0.404
COc1ccccc1-c1cc(Nc2cccc(CS(N)(=O)=O)c2)ncn1,scaled lipid accumulation score,[4],inactive: 0.066
same,scaled lipid accumulation score,[5],inactive: 0.266
O=C(O)CCC/C=C\C[C@@H]1[C@@H](/C=C/C(=O)COc2cccc(C(F)(F)F)c2)[C@H](O)C[C@@H]1O [15-keto Fluprostenol],scaled lipid accumulation score,[6],inactive: ≤ 0
NC[C@H]1c(c2C[C@@H]([C@]3(C4)CC(CC45)CC(C5)C3)O1)ccc(O)c2O.Cl,scaled lipid accumulation score,[5],active: 1.19
NS(=O)(=O)c1cccc2c1c([N+](=O)[O-])cc1nc(O)c(O)nc12 [NBQX disodium salt],scaled lipid accumulation score,[5],inactive: ≤ -0.006
NS(=O)(=O)c1cccc2c1c([N+](=O)[O-])cc1nc(O)c(O)nc12,scaled lipid accumulation score,[5],inactive: ≤ 0
NS(=O)(=O)c1cccc2c1c([N+](=O)[O-])cc1nc(O)c(O)nc12 [NBQX disodium],scaled lipid accumulation score,[5],inactive: ≤ -0.055
N#CC(=C(/N)Sc1ccccc1N)/C(C#N)=C(/N)Sc1ccccc1N,scaled lipid accumulation score,[5],inactive: ≤ 0
same,scaled lipid accumulation score,library stock concentration: 13.1 mM,inactive: 0.018
COc1cc2c(cc1OC)C(=O)C(CC1CCN(Cc3ccccc3)CC1)C2 (configuration not stated) [Donepezil],scaled lipid accumulation score,[5],inactive: ≤ 0
COc1cc2c(cc1OC)C(=O)C(CC1CCN(Cc3ccccc3)CC1)C2 (configuration not stated) [Donepezil hydrochloride],scaled lipid accumulation score,library stock concentration: 4.8 mM,inactive: 0.193
NC(N)=NCc1cccc(I)c1 [m-Iodobenzylguanidine hemisulfate],scaled lipid accumulation score,[5],inactive: ≤ -0.051
CC(CCCO)C1CCC2C3C(O)CC4CC(=O)CCC4(C)C3CC(O)C12C (configuration not stated) [3-keto Petromyzonol],scaled lipid accumulation score,[6],inactive: ≤ 0
COCC1=C(C(=O)OC(C)OC(=O)OC(C)C)N2C(=O)[C@@H](NC(=O)/C(=N\OC)c3csc(N)n3)[C@H]2SC1 (some centres not stated),scaled lipid accumulation score,[5],inactive: ≤ 0
COCC1=C(C(=O)OC(C)OC(=O)OC(C)C)N2C(=O)[C@@H](NC(=O)/C(=N\OC)c3csc(N)n3)[C@H]2SC1 (some centres not stated) [Cefpodoxime proxetil],scaled lipid accumulation score,library stock concentration: 3.6 mM,inactive: ≤ 0
CCN(CC)CCOC(=O)C(c1ccccc1)C1CCCCC1 (configuration not stated) [Drofenine hydrochloride],scaled lipid accumulation score,,inactive: 0.317
same,scaled lipid accumulation score,[5],inactive: 0.335
COc1ccccc1OCCNCC(O)COc1cccc2[nH]c3ccccc3c12 (configuration not stated) [Carvedilol],scaled lipid accumulation score,[5],active: 1.57
COc1cc(Cc2cnc(N)nc2N)cc(OC)c1OC [Trimethoprim],scaled lipid accumulation score,,inactive: ≤ 0
same,scaled lipid accumulation score,[4],inactive: ≤ 0
same,scaled lipid accumulation score,library stock concentration: 6.9 mM,inactive: ≤ 0
same,scaled lipid accumulation score,[5],inactive: 0.058 and inactive: ≤ 0
NC(=O)C(=O)O [Sodium Oxamate],scaled lipid accumulation score,[5],inactive: ≤ -0.055
COc1cc2c(cc1OC)CN(CCc1ccc(NC(=O)c3cc(OC)c(OC)cc3NC(=O)c3cnc4ccccc4c3)cc1)CC2 [Tariquidar],scaled lipid accumulation score,[4],inactive: 0.008
same,scaled lipid accumulation score,[5],inactive: 0.303
NC1(Cc2ccc(Cl)cc2)CCN(c2ncnc3[nH]ccc23)CC1,scaled lipid accumulation score,[5],active: 1.09
"FC(F)(F)c1cc(COC2CCCNC2c2ccccc2)cc(C(F)(F)F)c1 [L-733,060 hydrochloride]",scaled lipid accumulation score,[5],inactive: 0.518
CS(=O)(=O)c1ccc(C2=C(c3ccccc3)C(=O)OC2)cc1,scaled lipid accumulation score,[5],inactive: ≤ 0
CS(=O)(=O)c1ccc(C2=C(c3ccccc3)C(=O)OC2)cc1 [Rofecoxib],scaled lipid accumulation score,[4],inactive: ≤ 0
same,scaled lipid accumulation score,library stock concentration: 6.4 mM,inactive: ≤ -0.006 and inactive: ≤ 0
same,scaled lipid accumulation score,[5],inactive: 0.033 and inactive: ≤ -0.027
Cn1c(=O)c2[nH]cnc2n(C)c1=O [Aminophylline ethylenediamine],scaled lipid accumulation score,[5],inactive: ≤ 0
Cn1c(=O)c2[nH]cnc2n(C)c1=O [Oxtriphylline],scaled lipid accumulation score,library stock concentration: 7.1 mM,inactive: ≤ 0
Cn1c(=O)c2[nH]cnc2n(C)c1=O [Aminophylline],scaled lipid accumulation score,,inactive: ≤ 0
same,scaled lipid accumulation score,[4],inactive: ≤ 0
same,scaled lipid accumulation score,[5],inactive: 0.066
CC(=O)c1cc([N+](=O)[O-])c(Sc2cccc(Cl)c2Cl)s1,scaled lipid accumulation score,[4],inactive: ≤ -0.009
same,scaled lipid accumulation score,[5],inactive: 0.252
CCCCCC=CC=CC(O)CCCCCCCC(=O)OCC(COC(=O)CCCCCCCC=CC=CC(O)CCCCC)OC(=O)CCCCCCCC=CC=CC(O)CCCCC (configuration not stated) [Hydroxy Linoleins],scaled lipid accumulation score,[6],inactive: 0.061
C#C[C@]1(O)CC[C@H]2[C@@H]3CCc4cc(OC5CCCC5)ccc4[C@H]3CC[C@@]21C,scaled lipid accumulation score,[5],inactive: 0.426
Cc1ccnc2c1NC(=O)c1cccnc1N2C1CC1,scaled lipid accumulation score,[5],inactive: 0.213
Cc1ccnc2c1NC(=O)c1cccnc1N2C1CC1 [Nevirapine],scaled lipid accumulation score,[4],inactive: 0.081
same,scaled lipid accumulation score,[5],inactive: ≤ 0
Cc1ccnc2c1NC(=O)c1cccnc1N2C1CC1 [Viramune],scaled lipid accumulation score,[5],inactive: ≤ 0
